Source: the supplement of paper PMC12217912
Some of the results follow. Sequences were assembled here from the parent chain. Values near 0.05 are background.

B1: TEV protease; numbered along this chain (parent)
chain: MGESLFKGPRDYNPISSSICHLTNESDGHTTSLYGIGFGPFIITNKHLFRRNNGTLVVQSLHGVFKVKDTTTLQQHLVDGRDMIIIRMPKDFPPFPQKLKFREPQREERICLVTTNFQTKSMSSMVSDTSCTFPSGDGIFWKHWIQTKDGQCGSPLVSTRDGFIVGIHSASNFTNTNNYFTSVPKNFMELLTNQEAQQWVSGWRLNADSVLWGGHKVFMVKPEEPFQPVKEATQL

Variants of: B1
Experiment: raw area under fraction-flipped curve 0-4 h after induction (AUC4h, not background-subtracted), DNA-recorder readout of cleavage of the substrate (dimensionless); higher = more cleavage of the substrate by the protease variant
Conditions: temperature: 34 °C; time window: 0-4 h after rhamnose induction
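Also: Bxb1 expression induced with 0.2% (w/v) L-rhamnose at OD600 near 0.5, cultures sampled hourly, flipped fraction per protease–substrate barcode pair counted by paired-end Illumina sequencing.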

| Variant | area with substrate ENCYFQS | area with substrate ENDYFQS | area with substrate ENEYFQS | area with substrate ENKYFQS | area with substrate ENSYFQS | area with substrate ENFYFQS | area with substrate ENGYFQS | area with substrate ENMYFQS | area with substrate ENNYFQS | area with substrate ENQYFQS |
| --- | --- | --- | --- | --- | --- | --- | --- | --- | --- | --- |
| P228Y | 0.0678 | 0.0481 | 0.058 | 0.0626 | 0.045 | – | – | – | – | – |
| G214E | 0.0578 | – | – | – | 0.0755 | 0.057 | 0.0563 | 0.0459 | 0.0762 | 0.0673 |
| T174G | 0.0772 | 0.0777 | 0.0673 | 0.067 | – | 0.0692 | – | – | 0.0567 | 0.0576 |
| K66Q | – | 0.0353 | – | – | 0.0678 | – | – | – | – | – |
| K100D | – | 0.0604 | 0.058 | 0.0692 | – | 0.059 | – | – | 0.0516 | 0.0514 |
| A207R | 0.067 | – | 0.0647 | – | 0.0693 | – | 0.0613 | – | 0.0577 | 0.0509 |
| G202W | 0.0585 | 0.0531 | 0.0446 | 0.0452 | 0.0505 | 0.0589 | 0.064 | – | 0.039 | 0.0572 |
| K230A | 0.0564 | 0.0856 | 0.0359 | – | – | – | – | 0.0725 | – | 0.0554 |
| T181V | 0.0662 | 0.0688 | 0.0687 | 0.0645 | 0.0811 | – | – | – | – | 0.0555 |
| T181H | 0.0574 | 0.0542 | – | – | – | 0.0682 | 0.0619 | – | – | 0.0622 |
| R81V | – | 0.07 | – | 0.0479 | 0.0635 | – | – | 0.083 | – | 0.0435 |
| G138A | – | 0.0507 | – | – | – | – | – | – | – | – |
| V78I | – | 0.0642 | – | 0.0548 | – | – | 0.0647 | – | – | – |
| R87D | – | 0.0465 | 0.0459 | 0.0487 | 0.048 | – | – | 0.0702 | 0.0559 | – |
| F101H | – | 0.0571 | 0.0511 | 0.0673 | 0.0501 | 0.0615 | – | 0.0441 | 0.0609 | – |
| N172R | 0.0624 | 0.0901 | 0.0647 | 0.0637 | – | – | – | 0.0472 | – | 0.058 |
| L5T | – | 0.0583 | 0.0816 | 0.0554 | 0.0564 | – | 0.0702 | – | 0.0724 | 0.0574 |
| H29G | – | 0.0846 | – | – | 0.0745 | – | 0.0312 | – | – | – |
| N186R | 0.0551 | – | – | – | – | – | – | – | – | 0.0734 |
| K148L | 0.0716 | 0.0655 | – | – | 0.0528 | 0.0516 | 0.0551 | 0.0893 | 0.0706 | 0.0461 |

| Variant | area with substrate ENCYFQS | area with substrate ENDYFQS | area with substrate ENEYFQS | area with substrate ENKYFQS | area with substrate ENSYFQS | area with substrate ENFYFQS | area with substrate ENGYFQS | area with substrate ENMYFQS | area with substrate ENNYFQS | area with substrate ENQYFQS |
| --- | --- | --- | --- | --- | --- | --- | --- | --- | --- | --- |
| K90M | – | 0.0586 | 0.0564 | 0.0508 | – | – | – | – | – | 0.033 |
| W212S | 0.0603 | – | 0.0541 | – | 0.0851 | 0.0755 | – | – | – | – |
| L77R | – | 0.0618 | 0.061 | 0.0571 | 0.0765 | – | – | – | 0.0531 | – |
| Q75M | – | 0.0622 | 0.0663 | – | 0.061 | 0.0569 | – | 0.0688 | 0.0551 | 0.0418 |
| F163Y | 0.0631 | 0.0603 | – | – | – | 0.0558 | – | – | 0.0689 | – |
| T115K | – | 0.0477 | – | – | 0.0626 | 0.0579 | – | – | – | 0.0626 |
| R109Y | – | 0.0231 | 0.0702 | 0.0601 | 0.0591 | – | – | – | – | 0.0686 |
| F173T | 0.0665 | 0.0672 | 0.06 | – | 0.0756 | – | – | 0.0648 | 0.03 | – |
| R102E | – | 0.0635 | – | 0.0592 | 0.0681 | – | 0.0453 | – | – | 0.044 |
| W199Q | 0.0843 | – | – | – | – | – | – | – | 0.063 | 0.0614 |
| G166K | 0.0491 | – | 0.0396 | – | – | – | 0.0409 | – | – | – |
| F95L | – | 0.0526 | – | – | – | – | 0.0486 | – | 0.0954 | 0.0594 |
| G2T | – | 0.0428 | 0.0527 | – | – | – | – | 0.121 | – | – |
| Q197I | 0.0554 | 0.0435 | 0.0645 | – | 0.0554 | 0.0629 | – | – | 0.0563 | 0.0592 |
| L235C | 0.0606 | – | 0.0635 | – | 0.0756 | – | – | 0.0789 | 0.0839 | 0.0755 |
| Q97E | – | 0.0724 | 0.0532 | – | 0.0628 | – | – | 0.0768 | – | – |
| V165M | 0.0452 | 0.0566 | 0.0616 | – | 0.0721 | 0.0574 | – | – | – | 0.0148 |
| V165L | 0.0707 | – | – | 0.0427 | 0.0586 | – | 0.0727 | – | 0.0578 | 0.0651 |
| F117P | – | 0.068 | 0.074 | 0.0636 | 0.0633 | – | 0.0565 | 0.0791 | 0.0856 | 0.0518 |
| P222T | 0.0563 | 0.0676 | – | – | 0.0552 | 0.059 | – | – | 0.0501 | – |

Same assay, conditions: temperature: 34 °C; time window: 0-4 h after rhamnose induction

| Variant | area with substrate ENRYFQS | area with substrate ENTYFQS | area with substrate ENVYFQS | area with substrate ENHYFQS | area with substrate ENIYFQS | area with substrate ENPYFQS | area with substrate ENWYFQS | area with substrate ENYYFQS |
| --- | --- | --- | --- | --- | --- | --- | --- | --- |
| G214E | 0.0825 | 0.0876 | 0.0664 | – | – | – | – | – |
| T174G | – | 0.0625 | 0.0659 | 0.069 | 0.0848 | 0.0666 | – | – |
| K66Q | – | 0.0452 | – | – | 0.113 | – | 0.0126 | – |
| K100D | – | 0.0591 | 0.0711 | – | – | 0.0504 | – | – |
| A207R | – | – | 0.0587 | – | – | – | – | 0.0733 |
| G202W | – | 0.0693 | – | 0.052 | 0.0685 | 0.0674 | – | – |
| K230A | – | 0.0505 | – | – | – | – | – | – |
| T181V | – | 0.0388 | – | 0.0597 | – | 0.0464 | – | – |
| T181H | – | – | 0.0571 | – | – | – | – | – |
| R81V | 0.0768 | – | – | 0.0692 | – | – | – | – |
| G138A | 0.0454 | – | – | – | – | – | – | – |
| V78I | 0.0519 | 0.0934 | – | – | – | – | – | 0.0473 |
| R87D | 0.0552 | 0.0522 | – | – | – | 0.049 | – | 0.0433 |
| F101H | – | 0.0449 | – | – | – | – | 0.0684 | – |
| N172R | – | – | 0.0562 | 0.0812 | – | – | – | – |
| L5T | 0.0521 | 0.0659 | – | – | – | 0.0799 | – | – |
| H29G | 0.0659 | – | – | 0.07 | 0.107 | – | – | – |
| K148L | 0.0452 | 0.066 | 0.0844 | 0.0595 | 0.101 | – | – | 0.0655 |

| Variant | area with substrate ENRYFQS | area with substrate ENTYFQS | area with substrate ENVYFQS | area with substrate ENHYFQS | area with substrate ENIYFQS | area with substrate ENPYFQS | area with substrate ENWYFQS | area with substrate ENYYFQS |
| --- | --- | --- | --- | --- | --- | --- | --- | --- |
| W212S | – | 0.0543 | – | 0.0682 | – | – | – | – |
| L77R | 0.0531 | – | 0.0426 | 0.0704 | – | – | – | 0.0644 |
| Q75M | 0.0704 | – | 0.101 | 0.0579 | – | 0.0552 | – | 0.0563 |
| F163Y | 0.082 | 0.0664 | – | – | – | 0.0669 | 0.0458 | – |
| T115K | 0.0525 | 0.0643 | 0.0687 | 0.0702 | 0.161 | – | – | – |
| R109Y | 0.0642 | 0.0817 | – | 0.0661 | 0.0975 | – | – | – |
| F173T | – | 0.051 | 0.0623 | – | 0.0717 | – | 0.0587 | – |
| R102E | 0.0411 | 0.0529 | 0.0464 | 0.0571 | – | 0.0408 | 0.0336 | 0.0531 |
| W199Q | 0.0551 | 0.0629 | 0.0616 | – | – | – | 0.0611 | – |
| G166K | 0.0529 | 0.0616 | 0.0478 | – | – | 0.0403 | – | – |
| F95L | 0.0628 | – | – | – | – | – | – | – |
| Q197I | 0.0576 | – | – | – | – | – | – | 0.0695 |
| L235C | 0.0762 | – | 0.0709 | – | – | – | – | – |
| Q97E | – | 0.047 | – | – | – | 0.0466 | – | – |
| V165M | 0.063 | – | – | 0.0508 | 0.0642 | 0.05 | – | – |
| V165L | – | 0.033 | 0.0936 | 0.0695 | – | – | – | 0.0483 |
| F117P | 0.0842 | 0.0685 | – | – | 0.0799 | – | – | – |
| P222T | – | 0.055 | 0.0647 | – | – | 0.0631 | 0.053 | 0.0616 |
